Results from article PMC4336329 (PLoS ONE, 2015).
The whole screen tested about 310,000 compounds, of which about 2,200 (0.71%) showed an effect of 50% or more. Effects have a minus sign here. This is one part of the list.

target: human ether-à-go-go-related gene (hERG) potassium channel (human, UniProt Q12809); assay: primary screen, population patch clamp on CHO cells stably expressing hERG
Sequence (Q12809 whole entry, looked up): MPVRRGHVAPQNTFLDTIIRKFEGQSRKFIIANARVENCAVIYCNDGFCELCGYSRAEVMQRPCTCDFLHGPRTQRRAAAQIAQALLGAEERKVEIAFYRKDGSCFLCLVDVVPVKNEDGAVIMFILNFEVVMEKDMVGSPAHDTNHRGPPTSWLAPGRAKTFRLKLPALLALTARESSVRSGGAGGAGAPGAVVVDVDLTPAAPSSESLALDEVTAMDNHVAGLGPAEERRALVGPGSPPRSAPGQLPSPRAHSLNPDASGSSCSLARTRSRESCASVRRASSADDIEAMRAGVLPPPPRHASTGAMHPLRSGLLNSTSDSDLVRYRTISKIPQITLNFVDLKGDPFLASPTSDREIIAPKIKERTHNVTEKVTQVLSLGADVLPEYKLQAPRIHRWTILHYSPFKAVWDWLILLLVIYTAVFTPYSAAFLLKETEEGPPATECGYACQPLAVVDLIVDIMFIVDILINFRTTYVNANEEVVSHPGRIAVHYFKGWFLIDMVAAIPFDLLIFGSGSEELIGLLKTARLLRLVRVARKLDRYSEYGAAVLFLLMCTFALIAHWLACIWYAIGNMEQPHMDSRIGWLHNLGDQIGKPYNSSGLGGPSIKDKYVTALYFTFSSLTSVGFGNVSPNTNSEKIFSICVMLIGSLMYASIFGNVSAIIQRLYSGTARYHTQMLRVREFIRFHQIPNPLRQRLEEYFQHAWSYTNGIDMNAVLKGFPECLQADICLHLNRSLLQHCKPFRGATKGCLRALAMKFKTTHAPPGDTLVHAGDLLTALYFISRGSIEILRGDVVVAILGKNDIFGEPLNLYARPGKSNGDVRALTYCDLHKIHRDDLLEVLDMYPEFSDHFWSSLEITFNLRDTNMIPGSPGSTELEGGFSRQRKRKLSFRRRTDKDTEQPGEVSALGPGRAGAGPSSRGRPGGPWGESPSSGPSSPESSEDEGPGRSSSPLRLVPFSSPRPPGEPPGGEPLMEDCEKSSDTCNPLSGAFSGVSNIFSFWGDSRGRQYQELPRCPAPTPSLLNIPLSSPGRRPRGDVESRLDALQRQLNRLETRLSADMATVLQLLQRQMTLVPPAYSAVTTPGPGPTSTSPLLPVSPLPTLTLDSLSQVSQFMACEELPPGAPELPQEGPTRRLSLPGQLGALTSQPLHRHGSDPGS

Point of comparison: O=C(NNS(=O)(=O)c1ccc(Cl)cc1)C1CCN(Cc2ccccc2)CC1, “hERG current change (%, negative = inhibition) at 1uM” value 11.4%. Against it:
- CCCCN(C)CCCNC(=O)C1(O)c2ccccc2NC(=O)N1c1ccc(Cl)cc1 (stereo not drawn) — higher, 19.4%
- CC(=O)Oc1ccc(C(=O)Cc2ccccn2)c(O)c1 — lower, 7.84%
- Cc1ccc(NC(=O)CSc2nnc(NC(=O)c3ccco3)s2)cc1 — lower, -1.18%
- Cc1ccc(CONS(=O)(=O)c2cc(C)ccc2C)cc1 — higher, 13.7%
- O=C(CN1C2CCC1CC(O)(c1cccnc1)C2)Nc1ccc2c(c1)OCO2 (stereo not drawn) — lower, -19.9%
- CC1CCCC(NC(=O)COC(=O)c2cc(S(=O)(=O)N3CCCCC3)ccc2N2CCOCC2)C1C (stereo not drawn) — lower, -7.1%
- CN(C)Cc1ccccc1C1(O)c2ccccc2CSc2ccccc21.Cl (stereo not drawn) — lower, 6.62%
- COc1ccc(Cl)cc1NC(=O)CCN1C(=O)C2C3CCC(C3)C2C1=O (stereo not drawn) — lower, 6.94%
- O=C(CCCN1C(=O)C2CCCCN2C1=O)N1CCN(c2ccc([N+](=O)[O-])cc2)CC1 (stereo not drawn) — lower, -78.5%
- COC(c1ccccc1)c1nnc(CCC(=O)NCCc2ccc(Cl)cc2)o1 (stereo not drawn) — higher, 12.2%
- O=C1CN(O)C(c2ccccc2Cl)=c2cc(Br)ccc2=N1 — the same, 11.4%
- Cc1ccc(C2CCN(C(=S)Nc3cccc(C)c3)C2)cc1 (stereo not drawn) — lower, 2.01%
- CCN(c1ccccc1)S(=O)(=O)c1cccc(C(=O)NCc2ccccn2)c1 — higher, 12.8%
- O=C(Cc1nnc(NC(=O)c2ccccc2)s1)N/N=C/c1ccco1 — higher, 12.9%
- CCN(CC)S(=O)(=O)c1ccc2[nH]cc(C(=O)NCCc3ccccc3)c(=O)c2c1 — lower, 2.57%
- CC(=O)Nc1ccccc1Oc1ccccc1 — lower, 9.6%
- Cc1ccc(C(=O)NC(NCC2CCCO2)C(Cl)(Cl)Cl)cc1 (stereo not drawn) — lower, 9.95%
- O=C(c1ccc(CNS(=O)(=O)c2cccc(Cl)c2)cc1)N1CCCCC1 — higher, 13.9%
- CCN(CC)c1ccc(SS(=O)(=O)O)cc1 — lower, 5.26%
- Cc1ccc(Cl)cc1NC(=O)CN1CCOCC1 — higher, 12.2%
- Cc1cc(C)n2nc(C(=O)N/N=C/c3ccccc3C)nc2n1 — lower, 8.83%
- CCOC(=O)C1(Cc2ccc(Cl)cc2)CCN(Cc2nccn2CC)CC1 — lower, -57%
- CNc1nc(SC)n(C)c(=O)c1N=O — lower, 7.17%
- CCOC(=O)c1ccc(S(=O)(=O)N2CCN(C)CC2)cc1 — higher, 13.8%
- Cc1ccnc(NS(=O)(=O)c2ccc(N)cc2)n1 — lower, 9.42%
- CCCn1c2ccccc2c2cnn(CC(=O)OC)c(=O)c21 — higher, 11.8%
- COC(=O)c1cc(Cl)c(NC(=O)/C=C/c2ccc(OC)c(OC)c2)cc1OC — lower, -8.21%
- COc1ccccc1N1CCN(c2ccc(-c3ccccc3)nn2)CC1 — lower, 5.15%
- CNC(=O)Nc1ccc2nc(C)oc2c1 — higher, 18.7%
- O=c1c2ccccc2nc(-c2ccoc2)n1-c1ccccc1Cl — lower, 4.71%
- O=C(CSc1c[nH]c2ccccc12)NC1CCCC1 — higher, 17%
- Nc1nonc1OCCN1CCN(c2ccc([N+](=O)[O-])c3cccnc23)CC1 — lower, -28.6%
- COc1ccc(S(=O)(=O)N(C)CC(=O)N2CCC(C)CC2)cc1Cl — lower, 9.71%
- COc1ccc(N=Cc2c(O)ccc3ccccc23)cc1 — higher, 12.5%
- O=C(Nc1ccc2nc[nH]c2c1)c1ccco1 — lower, 1.77%
- COC(=O)c1nc[nH]c1C(=O)OC — higher, 18.4%
- Cc1ccc(NC(=O)Cn2c(=O)n(Cc3ccco3)c(=N)c3c4c(sc32)COC(C)(C)C4)cc1 — lower, 5.82%
- O=C(Cc1c(O)c2ccccc2oc1=O)c1ccc(F)cc1 — lower, 0.324%
- Cc1ccc(-c2noc(-c3ccno3)n2)cc1 — higher, 17.8%
- CCOc1ccc(S(=O)(=O)NC(Cc2cnc[nH]2)C(=O)O)cc1 (stereo not drawn) — lower, 6.38%
- CCOc1ccc(S(=O)(=O)Nc2ccccc2SC)cc1 — lower, 1.72%
- Cc1c2cnn(CC(=O)NC3CCCC3)c(=O)c2c(C)n1Cc1ccccc1 — higher, 12.4%
- CN1CCN(c2ccc(C(CC(N)=O)NC(=O)Cc3ccc(Br)cc3)cc2[N+](=O)[O-])CC1 (stereo not drawn) — lower, 6.05%
- CCOc1ccc(Br)cc1C(=S)N1CCCC1 — higher, 14.5%
- COc1ccc([C@H]2CC(=O)C=C(c3ccc(-c4ccccc4)c(F)c3)C2)cc1 — the same, 11.4%
- CCN(CC)CCN/N=C(\C)c1c(O)[nH]c(=O)[nH]c1=O — lower, 11.1%
- CCOC(=O)/C(C#N)=C/c1cc2ccccc2nc1N1CCOCC1 — lower, -0.385%
- CCC1(C)SC(NC(C)=O)=NN1C(C)=O (stereo not drawn) — lower, 5.87%
- CC(C)n1cc(/C=N/Nc2ccc(C(=O)O)cc2)c2ccccc21 — lower, 7.92%
- COC(=O)/C(C#N)=C\c1c(OC)[nH]c2ccccc12 — lower, 9.2%
- O=C(CN(C(=O)CCC(=O)Nc1nccs1)c1cccc(F)c1)NCc1ccc(F)cc1 — lower, 7.69%
- O=C(N/N=C/c1ccc(N2CCOCC2)cc1)c1ccccn1 — lower, 6.8%
- CCCCNC(=S)Nc1ccc(F)cc1 — lower, 8.45%
- CCCCNc1nc(CC(C)=O)ns1 — lower, 9.33%
- COc1ccc(CCNC(=O)CSc2nnc3ccc(-c4cccnc4)nn23)cc1 — lower, 4.77%
- COc1ccc(NC(=S)Nc2ncccc2C)c(OC)c1 — higher, 14%
- O/N=C1\CCCc2ccc3ccccc3c21 — higher, 12.3%
- CC1CCc2sc3nc(NCc4ccco4)n4ncnc4c3c2C1 (stereo not drawn) — lower, -1.55%
- CCc1ccc(Nc2n[n+](C)c(-c3ccncc3)s2)cc1.[Cl-] — lower, 7.2%
- Cc1ccc(NC2CCCN(C(=O)c3cccc4nccnc34)C2)cc1C (stereo not drawn) — higher, 19.7%
- CCCCOC(=O)c1nc(Cl)c(Cl)c(N)c1Cl — higher, 12%
- Cc1ccc(N2C(=O)CC(Sc3ccccc3C(=O)O)C2=O)c([N+](=O)[O-])c1 (stereo not drawn) — lower, 8.47%
- CC(C)c1cccc(C(C)C)c1NC(=O)COC(=O)C1CCC1 — lower, 10.4%
- COCCN=C1Sc2nc3ccc(C)cc3cc2CN1Cc1ccco1 — lower, -7.51%
- CCc1ccc(NC(=O)CC2C(=O)Nc3c2c(=O)n(C)c(=O)n3C)cc1 (stereo not drawn) — lower, 7.15%
- Cc1cc(C)cc(OCC(=O)OCC(=O)c2c(N)n(C)c(=O)n(C)c2=O)c1 — lower, 0.87%
- Cc1cc(C(=O)COc2cccc([N+](=O)[O-])c2)c(C)n1C1CC1 — lower, 1.64%
- CC(C)n1c(=S)[nH]c2ccccc2c1=O — lower, 10.7%
- O=C(Nc1cccc(Cl)c1)OCc1ccccn1 — lower, 4.71%
- O=C(COc1ccc2c3c(c(=O)oc2c1)CCC3)NCC(O)c1ccccc1 (stereo not drawn) — higher, 16.1%
- Cc1cc(C)nc(OC(C(=O)O)C(OCCc2ccccc2)(c2ccc(F)cc2)c2ccc(F)cc2)n1 (stereo not drawn) — higher, 14.1%
- CCCCCCC(C)n1[nH]c(=O)cc1N (stereo not drawn) — lower, 10.4%
- Cc1cc(C)nc(N(C#N)CN2C(=O)c3ccccc3S2(=O)=O)n1 — lower, 4.95%
- Cc1ccc(-c2cccc(NC(=O)C3C4C=CC(C4)C3C(=O)O)c2)o1 (stereo not drawn) — lower, -0.712%
- CN(Cc1nccn1C)C(=O)CC1C(=O)NCCN1Cc1cccc(Oc2ccccc2)c1 (stereo not drawn) — lower, -3.54%
- COc1ccc(NC(=O)CCCn2c(=O)[nH]c3ccccc3c2=O)cc1 — lower, 3.34%
- O=Cc1cn(Cc2c(F)cccc2Cl)nc1-c1ccccc1 — higher, 12.8%
- CCOCC(=O)Nc1nc2ccccc2s1 — higher, 15.9%
- CCOc1ccc(N=C(C)C2=C(O)c3ccccc3C2=O)cc1 — lower, 6.16%
- CCS(=O)(=O)c1nc(S(=O)(=O)c2ccc(C)cc2)c(N2CCC3(CC2)OCCO3)s1 — lower, 7.8%
- CCC(C)(C)NC(=O)C(OC(=O)c1ccco1)c1ccccc1OC (stereo not drawn) — lower, -2.92%
- CCN1CCN(CC(O)COc2ccc(C)c(C)c2)CC1.Cl (stereo not drawn) — lower, 0.714%
- O=S(=O)(NC1=NCCCCC1)c1cccs1 — lower, 9.46%
- Cc1ccc(S(=O)(=O)Nc2ccc(S(=O)(=O)N3CCCC3)cc2)cc1 — lower, 3.43%
- O=C(NC(=S)N1CCN(c2ccccc2)CC1)c1ccc(S(=O)(=O)N2CCOCC2)cc1 — higher, 16.8%
- COc1ccc(OC)c(CNC(=O)C2CCCN(S(=O)(=O)N3CC(C)CC(C)C3)C2)c1 (stereo not drawn) — lower, 9.2%
- CC1(C)C2CCC1(C)C(NC(=O)/C=C/c1ccccc1)C2 (stereo not drawn) — the same, 11.4%
- O=C(CCN1CCCCC1=O)NC1CCCN(Cc2ccc(Cl)cc2)C1 (stereo not drawn) — lower, 5.7%
- CC(=O)Nc1ccc(C(=O)COC(=O)CCc2ccccc2)c(F)c1 — lower, 3.03%
- Cc1ccn2c(=O)nc(SCC(=O)NCc3ccccc3Cl)nc2c1 — lower, 5.79%
- O=S(=O)(CCN1CCN(C(c2ccccc2)c2ccccc2)CC1)C(F)(F)F — higher, 13.6%
- CC(/C=C/c1ccccc1)=N\NC(=O)c1cc(C)[nH]n1 — lower, 3.73%
